Drawing on the supplement of paper PMC4604168 (melanoma cell lines), this text covers cell count for 26 compounds.

Some of the results follow. Single values are uncertain, as repeats are few or missing.
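Note: cells treated in 1,536-well plates, then fixed and DAPI-stained, with nuclei counted from automated high-throughput microscope images.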

The assay has as its system A375. Nature of the assay: cell count relative to DMSO control; melanoma cells; higher = more viable cells. Conditions: library dose: standard library concentration; 72 h.
In turn, `COc1cc(Nc2ncc(F)c(Nc3ccc4c(n3)NC(=O)C(C)(C)O4)n2)cc(OC)c1OC` [Tamatinib] + CC1(C)NC(=O)N(c2ccc([N+](=O)[O-])c(C(F)(F)F)c2)C1=O [nilutamide] (first compound 2 µM, partner dose 5 µM) registered a cell count of 89%.

In turn, `O=c1[nH]nc(Sc2ncc([N+](=O)[O-])s2)n1-c1ccc2c(c1)OCCO2` + NC1(c2ccc(-c3nc4ccn5c(=O)[nH]nc5c4cc3-c3ccccc3)cc2)CCC1 [MK2206] (first compound 1 µM, partner dose 2 µM) came in with a cell count of 88%.

As to `O=c1[nH]nc(Sc2ncc([N+](=O)[O-])s2)n1-c1ccc2c(c1)OCCO2` + CCN(CC)CCNC(=O)c1c(C)[nH]c(/C=C2\C(=O)Nc3ccc(F)cc32)c1C [sunitinib] (first compound 1 µM, partner dose 2 µM), the cell count was determined as 103%. In turn, `O=c1[nH]nc(Sc2ncc([N+](=O)[O-])s2)n1-c1ccc2c(c1)OCCO2` + Cn1c(=O)n(-c2ccc(C(C)(C)C#N)cc2)c2c3cc(-c4cnc5ccccc5c4)ccc3ncc21 [NVP-BEZ235] (first compound 1 µM, partner dose 0.02 µM) displayed a cell count of 101%. `C[C@@H]1CCN(C(=O)CC#N)C[C@@H]1N(C)c1ncnc2[nH]ccc12` + COc1cc2c(Oc3ccc4[nH]c(C)cc4c3F)ncnc2cc1OCCCN1CCCC1 [cediranib] (first compound 5 µM, partner dose 2 µM) had a cell count of 133%. The result for `O=c1[nH]nc(Sc2ncc([N+](=O)[O-])s2)n1-c1ccc2c(c1)OCCO2` + COCC[n+]1c2c(n(Cc3cnccn3)c1C)C(=O)c1ccccc1C2=O [YM155] (first compound 1 µM, partner dose 0.002 µM) reads 104%; that for `O=c1[nH]nc(Sc2ncc([N+](=O)[O-])s2)n1-c1ccc2c(c1)OCCO2` + CC(C)(C)c1cnc(CSc2cnc(NC(=O)C3CCNCC3)s2)o1 [SNS-032] (first compound 1 µM, partner dose 0.05 µM), 80.4%. `O=c1[nH]nc(Sc2ncc([N+](=O)[O-])s2)n1-c1ccc2c(c1)OCCO2` + O=C(O)c1ccc(-c2c[nH]c3ncc(-c4ccccc4)cc23)cc1C1CCCC1 [GSK650394] (first compound 1 µM, partner dose 0.8 µM) registered a cell count of 91.5%. The compound `O=c1[nH]nc(Sc2ncc([N+](=O)[O-])s2)n1-c1ccc2c(c1)OCCO2` + C#Cc1cccc(Nc2ncnc3cc(OCCOC)c(OCCOC)cc23)c1 [erlotinib] (first compound 1 µM, partner dose 4 µM) showed a cell count of 101%. For the compound `CC1(C)NC(=O)N(c2ccc([N+](=O)[O-])c(C(F)(F)F)c2)C1=O` [nilutamide] + C[C@@H]1CCN(C(=O)CC#N)C[C@@H]1N(C)c1ncnc2[nH]ccc12 [CP690550] (first compound 5 µM, partner dose 5 µM), the cell count was 92.6%.

For `O=c1[nH]nc(Sc2ncc([N+](=O)[O-])s2)n1-c1ccc2c(c1)OCCO2` + CC(=O)c1c(C)c2cnc(Nc3ccc(N4CCNCC4)cn3)nc2n(C2CCCC2)c1=O [palbociclib] (first compound 1 µM, partner dose 0.2 µM), the cell count was found to be 61.2%. To `O=C(Nc1cccc(Cl)c1)Nc1ncc(CCNc2ncnc3ccsc23)s1` + CN(C)S(=O)(=O)c1ccc2c(c1)/C(=C/c1cc3c([nH]1)CCCC3)C(=O)N2 [SU6656] (first compound 0.004 µM, partner dose 2 µM) belongs 105%; to `O=C(Nc1cccc(Cl)c1)Nc1ncc(CCNc2ncnc3ccsc23)s1` + NCC(=O)Nc1ccc(-n2nc(C(F)(F)F)cc2-c2ccc3c(ccc4ccccc43)c2)cc1 [OSU03012] (first compound 0.004 µM, partner dose 5 µM), 62.3%; to `O=c1[nH]nc(Sc2ncc([N+](=O)[O-])s2)n1-c1ccc2c(c1)OCCO2` + C=C(c1ccc(C(=O)O)cc1)c1cc2c(cc1C)C(C)(C)CCC2(C)C [Bexarotene] (first compound 1 µM, partner dose 10 µM), 109%. To `O=c1[nH]nc(Sc2ncc([N+](=O)[O-])s2)n1-c1ccc2c(c1)OCCO2` + O=C(CCCCCCC(=O)Nc1ccccc1)NO [vorinostat] (first compound 1 µM, partner dose 0.4 µM) belongs 105%. To `COc1cc(Nc2ncc(F)c(Nc3ccc4c(n3)NC(=O)C(C)(C)O4)n2)cc(OC)c1OC` [Tamatinib] + Cc1ccc(NC(=O)c2cccc(N(C)C)c2)cc1NC(=O)c1ccc(O)cc1 [ZM336372] (first compound 2 µM, partner dose 10 µM) belongs 77.1%; to `O=c1[nH]nc(Sc2ncc([N+](=O)[O-])s2)n1-c1ccc2c(c1)OCCO2` + Cc1cn(-c2cc(NC(=O)c3ccc(C)c(Nc4nccc(-c5cccnc5)n4)c3)cc(C(F)(F)F)c2)cn1 [nilotinib] (first compound 1 µM, partner dose 1 µM), 114%; to `O=c1[nH]nc(Sc2ncc([N+](=O)[O-])s2)n1-c1ccc2c(c1)OCCO2` + O=C(O)[C@@H]1[O][Sb](=[O])([O][Sb]2(=[O])[O][C@H]([C@H](O)CO)[C@H](O)[C@H](C(=O)O)[O]2)[O][C@H]([C@H](O)CO)[C@@H]1O [stibogluconate] (first compound 1 µM, partner dose 10 µM), 79.6%. Turning to `COc1cc(Nc2ncc(F)c(Nc3ccc4c(n3)NC(=O)C(C)(C)O4)n2)cc(OC)c1OC` [Tamatinib] + NC(=O)Nc1cc(-c2cccc(F)c2)sc1C(=O)N[C@H]1CCCNC1 [AZD7762] (first compound 2 µM, partner dose 0.1 µM), the cell count worked out at 65.5%. On to `COc1cc(Nc2ncc(F)c(Nc3ccc4c(n3)NC(=O)C(C)(C)O4)n2)cc(OC)c1OC` [Tamatinib] + OCCn1cc(-c2cnc3nnn(Cc4ccc5ncccc5c4)c3n2)cn1 [PF04217903] (first compound 2 µM, partner dose 5 µM), for which the cell count was determined as 107%.

Consider `O=c1[nH]nc(Sc2ncc([N+](=O)[O-])s2)n1-c1ccc2c(c1)OCCO2` + C[C@]1(O)C[C@@H](c2nc(-c3ccc4ccc(-c5ccccc5)nc4c3)c3c(N)nccn32)C1 [OSI906] (first compound 1 µM, partner dose 2 µM), for which the cell count came out at 92.6%. In turn, `O=c1[nH]nc(Sc2ncc([N+](=O)[O-])s2)n1-c1ccc2c(c1)OCCO2` + Cc1ccc(Nc2nccc(N(C)c3ccc4c(C)n(C)nc4c3)n2)cc1S(N)(=O)=O [Pazopanib] (first compound 1 µM, partner dose 2 µM) registered a cell count of 82.4%.

With `COc1cc(Nc2ncc(F)c(Nc3ccc4c(n3)NC(=O)C(C)(C)O4)n2)cc(OC)c1OC` [Tamatinib] + O=C(Nc1cccc(Cl)c1)Nc1ncc(CCNc2ncnc3ccsc23)s1 [SNS314] (first compound 2 µM, partner dose 0.004 µM), the cell count was determined as 88.1%. To `CC1(C)NC(=O)N(c2ccc([N+](=O)[O-])c(C(F)(F)F)c2)C1=O` [nilutamide] + Cc1cc(N2CCOCC2)cc2[nH]c(-c3c(NC[C@@H](O)c4cccc(Cl)c4)cc[nH]c3=O)nc12 [BMS536924] (first compound 5 µM, partner dose 1 µM) belongs 99.2%; to `O=c1[nH]nc(Sc2ncc([N+](=O)[O-])s2)n1-c1ccc2c(c1)OCCO2` + NC(=O)c1ccc(N(C(N)=O)c2c(F)cccc2F)nc1-c1ccc(F)cc1F [VX702] (first compound 1 µM, partner dose 2 µM), 104%.

Turning to `O=c1[nH]nc(Sc2ncc([N+](=O)[O-])s2)n1-c1ccc2c(c1)OCCO2` + Cc1cc([N+](=O)[O-])ccc1NS(=O)(=O)c1cc(Cl)ccc1Cl [FH535] (first compound 1 µM, partner dose 5 µM), the cell count was 82.9%.
